# Test results reported in PubChem BioAssay AID493035 (The Scripps Research Institute Molecular Screening Center, 2011).
# “And” between values parts separate entries of the source, which are not always exact repeats. Equal entries are not always repeated. In all, about 2,000 compounds went through this assay and about 45 (2%) were called active.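 The calls were made as follows: active = inhibition above the mean of all tested compounds plus 3 SD (cut at about 49% in these data); inactive = the rest.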 Some of the results follow.
# Target: Perilipin-5 (Homo sapiens) + 1-acylglycerol-3-phosphate O-acyltransferase ABHD5 (Homo sapiens) (UniProt Q00G26+Q8WTS1)
# Assay: ABHD5-PLIN5 interaction inhibitors, pilot screen, cell lysate, split luciferase complementation, luminescence, NIH validation set (AID 493035);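 as to inhibition: 0% = DMSO only wells while the 100% control is not stated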
# Conditions: split G. princeps luciferase complementation, lysates, 4 h; at 7.9 µM, stronger effect = higher value
# Chain of UniProt Q00G26 (Q00G26 whole entry, looked up): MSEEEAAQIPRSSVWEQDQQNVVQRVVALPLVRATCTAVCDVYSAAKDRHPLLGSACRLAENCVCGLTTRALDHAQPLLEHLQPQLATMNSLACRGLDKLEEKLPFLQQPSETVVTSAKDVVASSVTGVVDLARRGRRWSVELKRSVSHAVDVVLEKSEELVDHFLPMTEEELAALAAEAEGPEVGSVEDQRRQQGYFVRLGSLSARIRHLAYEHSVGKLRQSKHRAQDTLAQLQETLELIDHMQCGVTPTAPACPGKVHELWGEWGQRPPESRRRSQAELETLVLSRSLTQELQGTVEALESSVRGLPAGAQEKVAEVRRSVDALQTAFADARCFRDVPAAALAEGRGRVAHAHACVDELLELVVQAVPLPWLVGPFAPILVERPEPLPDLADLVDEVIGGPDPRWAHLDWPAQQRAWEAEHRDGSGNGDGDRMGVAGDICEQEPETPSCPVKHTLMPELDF
# Chain of UniProt Q00G26 (Q8WTS1 whole entry, looked up): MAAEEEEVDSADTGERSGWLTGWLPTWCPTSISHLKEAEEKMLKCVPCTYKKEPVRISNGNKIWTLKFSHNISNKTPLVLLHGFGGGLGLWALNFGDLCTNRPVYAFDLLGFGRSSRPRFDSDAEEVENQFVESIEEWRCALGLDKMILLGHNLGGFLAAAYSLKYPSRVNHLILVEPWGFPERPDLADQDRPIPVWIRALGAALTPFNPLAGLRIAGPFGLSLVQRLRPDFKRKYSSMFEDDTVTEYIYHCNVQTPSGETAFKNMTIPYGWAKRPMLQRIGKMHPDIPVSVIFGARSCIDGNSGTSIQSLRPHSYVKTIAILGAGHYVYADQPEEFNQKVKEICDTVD
row,SMILES,inhibition
1,CSc1ccc(/C=N/N2CCN(Cc3ccc(C)cc3C)CC2)cc1,inactive: 2.58%
2,C[C@H](NC(=O)Nc1ccccc1F)C(=O)O,inactive: 3.51%
3,COc1ccc2cc[nH]c2c1,inactive: 5.24%
4,C[N+]12CCC(CC1)C(OC(=O)C(O)(c1ccccc1)c1ccccc1)C2 (stereo unspecified),inactive: -9.92%
5,CC(=O)N1CCn2c3c(c4cc(C)ccc42)CCCC31 (stereo unspecified),inactive: 2.79%
6,NC(N)=N/N=C/c1c(Cl)cccc1Cl,inactive: 1.14%
7,CC(C)Cn1c(=S)[nH]c2cc(C(=O)O)ccc2c1=O,inactive: -9.09%
8,NS(=O)(=O)c1cc2c(cc1Cl)NCNS2(=O)=O,inactive: -3.31%
9,O=c1[nH]c(=O)n([C@H]2C[C@H](O)[C@@H](CO)O2)cc1F,inactive: -4.33%
10,O=C(N1CCCC1)C12CC3CC(C1)CC(C(=O)N1CCCC1)(C3)C2,inactive: 6.12%
11,O=C(/C=C/c1c[nH]c2ccccc12)c1cccc2ccccc12,inactive: 38.2%
12,CS(=O)(=O)Nc1cccc(C(=O)CC2(O)C(=O)Nc3ccc(Br)cc32)c1 (stereo unspecified),inactive: -3.77%
13,COC1=CC(=O)CC(C)C12Oc1c(Cl)c(OC)cc(OC)c1C2=O (stereo unspecified),inactive: -2.99%
14,O=C(c1cc2cc(Br)ccc2o1)N1CCCC1,inactive: -5.04%
15,CC(=O)[C@H]1CC[C@H]2[C@@H]3CCC4=CC(=O)CC[C@]4(C)[C@H]3[C@H](O)C[C@]12C,inactive: 7.21%
16,Cn1cc(/C=C/C(=O)c2ccccc2)c2ccccc21,inactive: 13.7%
17,COc1ccc(-c2c3c(=O)n(C)c(=O)n(C)c3cn2C2CCCCC2)cc1,inactive: 7.04%
18,COc1cccc2cc(-c3ccccc3)c(=O)oc12,inactive: -4.71%
19,COc1cc2nc(N3CCN(C(=O)C4CCCO4)CC3)nc(N)c2cc1OC (stereo unspecified),inactive: 4.62% and inactive: -16.8%
20,C[C@H]1C[C@H]2[C@@H]3CCC4=CC(=O)C=C[C@]4(C)[C@@]3(Cl)[C@@H](O)C[C@]2(C)[C@@]1(O)C(=O)CO,inactive: -0.24%
21,CC(C)OC(=O)CC12CN3CN(C1)CC(CC(=O)OC(C)C)(C3)C2=O,inactive: -5.66%

row,SMILES,inhibition
1,CC1(C)CC(C(CC(=O)O)c2ccccc2)CCO1 (stereo unspecified),inactive: -4.33%
2,Cc1ccc(P(=O)(CSC(=N)N)c2ccc(C)cc2)cc1,inactive: 24.2%
3,COc1ccc(O)c(C(=O)/C=C/c2cc3ccccc3o2)c1,active: 73.2%
4,CCCCC[C@H](O)/C=C/[C@@H]1[C@@H](C/C=C\CCCC(=O)O)[C@H]2CO[C@@H]1C2,inactive: -6.81%
5,CCc1cc2c3c(c(=O)oc2cc1O)CCCC3,inactive: -1.19%
6,O=c1[nH]cc(F)c(=O)[nH]1,inactive: -12.1%
7,CCNC(=S)N1CCN(CCN2C(=O)c3cccc4cccc(c34)C2=O)CC1,inactive: 7.9%
8,CC(=O)c1cccc(NC(=O)N[C@@H](CC(C)C)C(=O)O)c1,inactive: 1.9%
9,CC1(C(=O)O)CCC(C(=O)NC2CCCCCC2)C1(C)C (stereo unspecified),inactive: -0.73%
10,CS(=O)(=O)Oc1ccc2c(c1)O/C(=C\C=C\c1ccccc1)C2=O,active: 53.5%
11,Nc1ncnc2c1ncn2C1OC(CO)C(O)C1O (stereo unspecified),inactive: -4.63%
12,CC1(C)OC2OC(C(=O)N/N=C/c3ccccc3F)C3OC(C)(C)OC3C2O1 (stereo unspecified),inactive: -4.6%
13,O=C(c1ccc([N+](=O)[O-])cc1)N1CCSC1c1ccccc1Cl (stereo unspecified),inactive: -4.89%
14,O=C(O)Cc1ccc(O)c(F)c1,inactive: -5.48%
15,CC(C)CC(=O)NC(NC(=O)CC(C)C)c1cccc([N+](=O)[O-])c1,inactive: -8.94%
16,O=C1CC(c2ccc(OCCCCCOc3ccc(C4CC(=O)NC4=O)cc3)cc2)C(=O)N1 (stereo unspecified),inactive: 8.4%
17,COC(=O)C1=C(C)NC(C)=C(C(=O)OC)C1c1ccccc1[N+](=O)[O-],active
18,N/C(=N/OS(=O)(=O)c1ccc([N+](=O)[O-])cc1)c1ccncc1,inactive: -6.02%
19,COc1cc2c(cc1O)CC[C@@H]1[C@@H]2CC[C@]2(C)[C@@H](O)CC[C@@H]12,inactive: -4.16%
20,NS(=O)(=O)c1ccc(CCNC(=O)C2CCCN2C(=O)OCc2ccccc2)cc1 (stereo unspecified),inactive: -14%
21,C=CCNc1nc2c(c(=O)n(C)c(=O)n2C)n1CC(=C)C,inactive: 12.9%

row,SMILES,inhibition
1,Clc1ccccc1CN1CCc2sccc2C1,inactive: -3.14%
2,O=C(/C=C/c1ccccc1)NC(=O)c1ccccc1O,inactive: 12.7%
3,CN(C)CCCN1c2ccccc2CCc2ccc(Cl)cc21,inactive: -21.8%
4,COc1ccc2nc(C)cc(Nc3ccccc3O)c2c1,inactive: -5.57%
5,CCOCC(=O)Nc1ccccc1C(=O)N1CCOCC1,inactive: 7.04%
6,O=C(O)/C=C/c1cccc(OCc2ccccc2)c1,inactive: -15.3%
7,O=C(c1ccc(F)cc1)[C@@H]1[C@@H](C(=O)c2ccccc2)[C@@]2(C(=O)Nc3ccccc32)[C@H]2c3ccccc3C=CN12,inactive: 15.4%
8,C#C[C@]1(O)CC[C@H]2[C@@H]3CCc4cc(OC)ccc4[C@H]3CC[C@@]21C,inactive: -8.39%
9,CC1=C(C)C(=O)C(CCCCC#CCCCC#CCO)=C(C)C1=O,inactive: 14.6%
10,c1coc(-c2nnc3n2C2(CCCC2)Cc2ccccc2-3)c1,inactive: -2.54%
11,O=C(/C=C/c1ccco1)Nc1ccccc1C(=O)O,inactive: 2.66%
12,CCCCCCC(=O)N(O)C1CC(=O)N(Cc2ccccc2)C1=O (stereo unspecified),inactive: 8.08%
13,O=C(CN1C(=O)c2ccccc2S1(=O)=O)Nc1ccccc1,inactive: -7.21%
14,COc1cc2c(cc1OC)-c1nnc(C)n1C(C)(C)C2,inactive: -1.09%
15,COc1cc(OC)c2c(C)c(Cl)c(=O)oc2c1,inactive: -6.84%
16,COc1ccc(NC(=O)CC(c2ccccc2)c2ccco2)cc1 (stereo unspecified),inactive: 19%
17,CC[C@H]1CN2CCc3cc(OC)c(OC)cc3[C@@H]2C[C@@H]1C[C@H]1NCCc2cc(OC)c(OC)cc21,inactive: -1.41%
18,CCOc1ccc2oc(-c3ccccc3)c(C(=O)O)c2c1,inactive: -9.54%
19,CCN(CC)CCNC(=O)c1ccc(NC(C)=O)cc1,inactive: 2.59% and inactive: 3.56%
